Source: the supplement of paper PMC7266297
Counter-ions that a name gives are not always drawn. Some of the results follow. Single values are uncertain, as repeats are few or missing.

Key:
KB-3-1 = test: growth inhibition relative to DMSO control (SRB); cervical cancer cells: KB-3-1 is the parent and KB-V1 overexpresses MDR1; SRB is the sulforhodamine B stain; higher = more growth inhibition; conditions: 1 µM; 72 h
KB-V1 = test: as above; conditions: 1 µM; 72 h
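Further: Read-out is SRB optical density at 490 nm, with the control being wells given 0.5% DMSO vehicle, and compound added one day after cells were plated.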

SMILES | growth inhibition (KB-3-1) [%] | growth inhibition (KB-V1) [%]
CC(=O)Nc1ccc(C(=O)Nc2ccccc2N)cc1 [CI994 (Tacedinaline)] | 4.51 | 33.8
NCCc1c[nH]cn1 [Histamine 2HCl] | 34.1 | 3.36
O=C(Nc1ccccc1)N1CCN(c2nc(-c3ccccc3)ns2)CC1 | 8.81 | 40.3
N#CSc1cc(SC#N)c(N)nc1N | 7.8 | < 0
O=C(COc1cccc2c(=O)[nH]ccc12)c1ccccc1 | 49.9 | 19.1
Clc1cccc(Cl)c1NC1=NCCN1 [Clonidine HCl] | 26 | 5.22
CN1C(=O)C(Cc2c[nH]c3ccccc23)NC1=S (stereo not given) [Necrostatin-1] | 42 | < 0
CC(COc1ccccc1)N(CCCl)Cc1ccccc1 (stereo not given) [Phenoxybenzamine HCl] | 29.6 | 11.7
CC(C)(C)c1cc(/C=C(\C#N)C(N)=S)cc(C(C)(C)C)c1O [Tyrphostin AG 879] | 21 | 3.93
O=c1c(-c2ccc(O)cc2)coc2cc(O)cc(O)c12 [Genistein] | 14 | 35.9
CN(C)CC(=O)Nc1ccc2[nH]c(=O)c3ccccc3c2c1 | 25.1 | 24.1
CCOc1nc2cccc(C(=O)OC(C)OC(=O)OC3CCCCC3)c2n1Cc1ccc(-c2ccccc2-c2nn[nH]n2)cc1 (stereo not given) [Candesartan Cilexetil] | 55.4 | 10.8
COC1CCN(C(=O)c2cc(Cc3n[nH]c(=O)c4ccccc34)ccc2F)CC1 | 2.54 | 23.4
Cc1c(OCC(F)(F)F)ccnc1C[S+]([O-])c1nc2ccccc2[nH]1 (stereo not given) [Lansoprazole] | 9.61 | 31.2
C=CCNC1=C2C[C@@H](C)C[C@H](OC)[C@H](O)[C@@H](C)/C=C(\C)[C@H](OC(N)=O)[C@@H](OC)/C=C\C=C(/C)C(=O)NC(=CC1=O)C2=O [17-AAG (Tanespimycin)] | 84.2 | 63.6
Cc1ccc(F)c(NC(=O)Nc2ccc(-c3cccc4[nH]nc(N)c34)cc2)c1 [Linifanib (ABT-869)] | 18 | 18.1
Cc1cn(-c2cc(NC(=O)c3ccc(C)c(Nc4nccc(-c5cccnc5)n4)c3)cc(C(F)(F)F)c2)cn1 [Nilotinib (AMN-107)] | 68.1 | 47
CNC(=O)c1cc(Oc2ccc(NC(=O)Nc3cc(C(C)(C)C)nn3-c3ccc4ncccc4c3)c(F)c2)ccn1 [DCC-2036 (Rebastinib)] | < 0 | 3.12
Cc1cc(C)c2c(c1)[C@@H](N(Cc1cc(C(F)(F)F)cc(C(F)(F)F)c1)c1nnn(C)n1)CCCN2C[C@H]1CC[C@H](C(=O)O)CC1 | 2.81 | 7.07
Nc1nc(N)c(N=O)c(OCC2CCCCC2)n1 | 29.8 | 3.19
OC[C@@H](O)CN1CCN(c2ccccc2)CC1 [Levodropropizine] | 7.21 | 20.5
CC(C)c1noc(N2CCC(COc3ccc(-c4ccc(S(C)(=O)=O)cc4)nc3)CC2)n1 | < 0 | 51.4
CCCCCCCCOc1ccccc1C(=O)Nc1ccc(C(=O)OCC[N+](C)(CC)CC)cc1 [Otilonium Bromide] | < 0 | 1.63
COc1c(N2C[C@@H]3CCCN[C@@H]3C2)c(F)cc2c(=O)c(C(=O)O)cn(C3CC3)c12 [Moxifloxacin HCl] | 33.7 | 22.1

SMILES | growth inhibition (KB-3-1) [%] | growth inhibition (KB-V1) [%]
O=C(N/N=C/c1ccc(O)c(O)c1)c1cc2ccccc2cc1O [Dynasore] | 37.3 | < 0
COc1cc(Nc2ncc(F)c(Nc3ccc4c(n3)N(COP(=O)(O)O)C(=O)C(C)(C)O4)n2)cc(OC)c1OC [Fostamatinib (R788)] | 34 | 3.73
COc1cccc2cc(-c3nc([C@H]4CC[C@H](C(=O)O)CC4)n4ncnc(N)c34)[nH]c12 | 16.9 | 27.4
CCN1CCN(Cc2ccc(-c3cc4c(N[C@H](C)c5ccccc5)ncnc4[nH]3)cc2)CC1 | 41 | 21.1
CC(=O)O[C@]1(C(C)=O)CC[C@H]2[C@@H]3C[C@H](C)C4=CC(=O)CC[C@]4(C)[C@H]3CC[C@@]21C [Medroxyprogesterone acetate] | 28.4 | 6.38
O=C(NC[C@H](O)CO)c1ccncc1Nc1ccc(I)cc1F | 45.6 | 34.2
COc1ccc(C[C@H](NC(=O)[C@H](C)NC(=O)CN2CCOCC2)C(=O)N[C@@H](Cc2ccccc2)C(=O)[C@@]2(C)CO2)cc1 | 100 | 38
O=C(NC1CCNCC1)c1n[nH]cc1NC(=O)c1c(Cl)cccc1Cl | 99.7 | 35.9
C[C@H]1c2cccc(O)c2C(=O)C2=C(O)[C@]3(O)C(=O)C(C(N)=O)=C(O)[C@@H](N(C)C)[C@@H]3[C@@H](O)[C@@H]21 [Doxycycline HCl] | < 0 | < 0
CCc1ccc(CCOc2ccc(CC3SC(=O)NC3=O)cc2)nc1 (stereo not given) [Pioglitazone HCl] | 20.3 | 20.3
CN(C)CC[C@H](CSc1ccccc1)Nc1ccc(S(=O)(=O)NC(=O)c2ccc(N3CCN(Cc4ccccc4-c4ccc(Cl)cc4)CC3)cc2)cc1[N+](=O)[O-] | 30.4 | 37.4
CC1=C(/C=C/C(C)=C/C=C/C(C)=C\C(=O)O)C(C)(C)CCC1 [Isotretinoin] | 20.2 | 61.9
CN1[C@@H]2CC[C@H]1C[C@@H](OC(c1ccccc1)c1ccccc1)C2 [Benztropine mesylate] | 0.562 | 27.9
O=C1Nc2ccccc2/C1=C1/Nc2ccccc2C1=O [Indirubin] | < 0 | 14
CCCCc1oc2ccccc2c1C(=O)c1cc(I)c(OCCN(CC)CC)c(I)c1 [Amiodarone HCl] | 37 | 18.4
C[C@H](NCc1ccc(OCc2cccc(F)c2)cc1)C(N)=O [Safinamide Mesylate] | 33.9 | 19.7
NC(=S)N/N=C/c1ncccc1N [Triapine] | 52.8 | 6.79
CCOC(=O)[C@H](CCc1ccccc1)N[C@@H](C)C(=O)N1Cc2cc(OC)c(OC)cc2C[C@H]1C(=O)O [Moexipril HCl] | 28.7 | 22.3
CCOC(=O)c1ncn2c1CN(C)C(=O)c1cc(F)ccc1-2 [Flumazenil] | 11.3 | 38.4
CC(=O)NS(=O)(=O)c1ccc(N)cc1 [Sulfacetamide Sodium] | 20 | 1.41
COc1cccc(Nc2c(C(N)=O)cnc3c(C)cc(S(=O)(=O)c4cccc(C(=O)N(C)C)c4)cc23)c1 | 18.9 | < 0
O=C(NOCC1CC1)c1ccc(F)c(F)c1Nc1ccc(I)cc1Cl | 89 | 92.1
CC(=O)c1cc([N+](=O)[O-])c(Sc2cccc(Cl)c2Cl)s1 | < 0 | < 0
O=C(O)c1ccc(C=C2SC(=S)N(c3cccc(C(F)(F)F)c3)C2=O)cc1 | 3.98 | < 0

SMILES | growth inhibition (KB-3-1) [%] | growth inhibition (KB-V1) [%]
CC(C)c1cc(-c2ccc(F)c3ccccc23)nc(N)n1 | < 0 | < 0
COc1cc2c(Oc3ccc(NC(=O)C4(C(=O)Nc5ccc(F)cc5)CC4)cc3F)ccnc2cc1OCCCN1CCOCC1 | 95 | 81.2
CCOc1cc2ncc(C#N)c(Nc3ccc(OCc4ccccn4)c(Cl)c3)c2cc1NC(=O)/C=C/CN(C)C [Neratinib (HKI-272)] | 61.1 | 43.9
CC[C@H](CO)Nc1nc(NCc2ccccc2)c2ncn(C(C)C)c2n1 [Roscovitine (Seliciclib,CYC202)] | 33.5 | 37.5
CCOC(=O)C1=C(C)NC(C)=C(C(=O)OC)C1c1cccc([N+](=O)[O-])c1 (stereo not given) [Nitrendipine] | 28.7 | 5.22
CN(C)CCc1c[nH]c2ccc(Cn3cncn3)cc12 [Rizatriptan Benzoate] | 27.1 | 14.1
C[C@H](NC(=O)[C@@H](O)c1cc(F)cc(F)c1)C(=O)N[C@@H]1C(=O)N(C)c2ccccc2-c2ccccc21 | 40.7 | 75.6
COc1ccccc1Oc1c(NS(=O)(=O)c2ccc(C(C)(C)C)cc2)nc(-c2ncccn2)nc1OCCO [Bosentan Hydrate] | < 0 | < 0
Nc1nccc2c1ncn2C1C=C(CO)C(O)C1O (stereo not given) [3-Deazaneplanocin A (DZNeP)] | 65.7 | 35.2
CC1=C(C(=O)OC2CCCCC2)C(c2ccc([N+](=O)[O-])cc2)C2=C(CC(C)(C)CC2=O)N1 (stereo not given) | 59.6 | 19.1
CCN(CC)CCOc1ccc(C(=C(Cl)c2ccccc2)c2ccccc2)cc1 [Clomifene citrate] | 37.6 | 16
Cc1cccc(Nc2cc(Cl)nc(SCC(=O)O)n2)c1C | 59.8 | 4.32
c1ccc(-c2[nH]ncc2-c2ccnc3ccccc23)nc1 | 5.56 | 20.1
Cc1ccc2c(=O)c3cccc(CC(=O)O)c3oc2c1C [DMXAA (Vadimezan)] | 29.6 | 19.9
NS(=O)(=O)c1ccc(NC(=O)Nc2ccc(F)cc2)cc1 | 19.8 | 8.1
O=C1N=C(O)NC1(c1ccccc1)c1ccccc1 [Phenytoin sodium] | 30.4 | 15.6
CC1(C)CCC(CN2CCN(c3ccc(C(=O)NS(=O)(=O)c4ccc(NCC5CCOCC5)c([N+](=O)[O-])c4)c(Oc4cnc5[nH]ccc5c4)c3)CC2)=C(c2ccc(Cl)cc2)C1 | 35.7 | < 0
Cc1cc(Nc2cc(CN3CCOCC3)c3nc(C)c(Cc4ccc(Cl)cc4F)n3n2)n[nH]1 | 87.1 | 73.8
Cc1ccc(-c2c(-c3nn(C)c4ncnc(N5CC[C@H](N6CCCCC6)C5)c34)cnn2C)cc1 | 0.562 | 41.7
CNC(CC(=O)O)C(=O)O [NMDA (N-Methyl-D-aspartic acid)] | 85.5 | 70.5
COc1ncc(-c2ccc3nccc(-c4ccnnc4)c3c2)cc1NS(=O)(=O)c1ccc(F)cc1F | 100 | 82.7
CC1CCc2cc(F)cc3c(=O)c(C(=O)O)cn1c23 (stereo not given) [Flumequine] | < 0 | 9.02
